# Laboratory results reported in a collection of fitness landscapes (doi:10.1016/j.celrep.2020.107928).
# Over roughly 81,000 sequences, “one-hybrid fitness for binding NBS DNA” has its median near -0.1; the highest 2% begin near 0.36. The list shows a part of the results.
# B1: Caulobacter ParB omega fusion; a variant is named by its letters at X, in order, B8GW30 (parent)
# chain: MESVVVGEPGMSEGRRGLGRGLSALLGEVDAAPAQAPGEQLGGSREAPIEILQRNPDQPRRTFREEDLEDLSNSIREKGVLQPILVRPSPDTAGEYQIVAGERAWRAAQRAGLKTVPIMVRELDDLAVLEIGIIENVQRADLNVLEEALSYKVLMEKFERTQENIAQTIGKSXSHVANXMRLLXLPDEVQSYLVSGELTAXHARAIAAAADPVALAKQIIEGGLSVRETEALARKAPNLSAGKSKGGRPPRVKDTDTQALESDLSSVLGLDVSIDHRGSTGTLTITYATLEQLDDLCNRLTRGI
# Variants of: B1
# Assay: one-hybrid fitness for binding NBS DNA (the Noc-binding site; scaled: cognate 1, non-cognate 0); higher = stronger binding
# Conditions: with NBS DNA site
# Procedure, shortened: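 Selection: bacterial one-hybrid in E. coli USO, HIS3 reporter with the site 19 bp from the promoter, 48 hours at 37°C on M9-minus-histidine plus 0.1 mM IPTG and 5 mM 3-AT. Libraries were Caulobacter ParB with four randomised specificity codons, sequenced on Illumina before and after selection. Fitness is the rescaled log change in variant-to-wild-type read ratio, anchored to the cognate and non-cognate sites.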
row,Variant,one-hybrid fitness for binding NBS DNA
1,KEDT,≤ 0.2
2,PLKN,≤ 0.2
3,RSMY,≤ 0.2
4,KSAG,≤ 0.2
5,KSAC,≤ 0.2
6,TMKY,≤ 0.2
7,IWWV,≤ 0.2
8,QNSG,≤ 0.2
9,DLGT,≤ 0.2
10,RPYT,≤ 0.2
11,PPKS,≤ 0.2
12,QRSH,0.522
13,VWGA,≤ 0.2
14,NCYR,≤ 0.2
15,RASI,≤ 0.2
16,IAMG,≤ 0.2
17,VRNE,≤ 0.2
18,LEMT,≤ 0.2
19,SHEY,≤ 0.2
20,SDML,≤ 0.2
21,KENE,≤ 0.2
22,QLIM,≤ 0.2
23,LLHD,≤ 0.2
24,AASI,≤ 0.2
25,LNHF,≤ 0.2

row,Variant,one-hybrid fitness for binding NBS DNA
1,QAEC,≤ 0.2
2,RTYL,≤ 0.2
3,FWLC,≤ 0.2
4,LCQR,≤ 0.2
5,TATR,≤ 0.2
6,PEEA,≤ 0.2
7,HSGE,≤ 0.2
8,WHQI,≤ 0.2
9,WDIS,≤ 0.2
10,RCMG,≤ 0.2
11,HFRC,≤ 0.2
12,PPWK,≤ 0.2
13,PAMT,≤ 0.2
14,QPQM,≤ 0.2
15,MYRG,≤ 0.2
16,YDME,≤ 0.2
17,STTC,≤ 0.2
18,VAYN,≤ 0.2
19,LLYA,≤ 0.2
20,YSWS,≤ 0.2
21,FWKG,≤ 0.2
22,QNYR,0.203
23,KDSG,≤ 0.2
24,SSEG,≤ 0.2
25,EASG,≤ 0.2

row,Variant,one-hybrid fitness for binding NBS DNA
1,APTI,≤ 0.2
2,RFRR,0.486
3,VKSK,≤ 0.2
4,KHSN,≤ 0.2
5,CVIG,≤ 0.2
6,LYAI,≤ 0.2
7,PRWG,≤ 0.2
8,WWDS,≤ 0.2
9,RPNI,≤ 0.2
10,YSCG,≤ 0.2
11,AFAR,≤ 0.2
12,EDQD,≤ 0.2
13,SSCS,≤ 0.2
14,KNNS,≤ 0.2
15,HTLS,≤ 0.2
16,KKWR,≤ 0.2
17,LITC,≤ 0.2
18,PQNY,≤ 0.2
19,ILKS,≤ 0.2
20,ALAV,≤ 0.2
21,QRIN,≤ 0.2
22,NYQT,≤ 0.2
23,MPHS,≤ 0.2
24,YCYT,≤ 0.2
25,DIPR,≤ 0.2

row,Variant,one-hybrid fitness for binding NBS DNA
1,TCFF,≤ 0.2
2,DMFV,≤ 0.2
3,GTSV,≤ 0.2
4,MSVI,≤ 0.2
5,RNLH,≤ 0.2
6,HKHR,≤ 0.2
7,WRQY,≤ 0.2
8,PQPQ,≤ 0.2
9,YNID,≤ 0.2
10,YPDS,≤ 0.2
11,CNNT,≤ 0.2
12,PFSY,≤ 0.2
13,IQSC,≤ 0.2
14,NVAR,≤ 0.2
15,TKGG,≤ 0.2
16,FITG,≤ 0.2
17,TNGI,≤ 0.2
18,RYPC,≤ 0.2
19,DCNA,≤ 0.2
20,INAT,≤ 0.2
21,WICR,≤ 0.2
22,SATP,≤ 0.2
